Data reported in PubChem BioAssay AID485281 (National Center for Advancing Translational Sciences (NCATS), 2010).
“And” between values parts separate entries of the source, which are not always exact repeats. Equal values may be shown once. The whole screen tested about 350,000 compounds, of which about 260 (0.074%) were called active. The inconclusive results got no clear call from the source; some entries with a clear call stand among them for comparison. The call rests on the fitted dose curve; in most records, active means well fitted inhibition curve with a large enough effect; inconclusive means small, poorly fitted or top-dose-only effect; inactive means no such curve, though single readings can be large or run the other way. A potency beside an inconclusive call is a rough fit, not a confirmed value.

These compounds were tested against Ferritin light chain (Equus caballus) (UniProt P02791) (assay: qHTS Assay for Identification of Novel General Anesthetics). Settings: apoferritin/1-aminoanthracene competitive binding, fluorescence; series mostly up to 77.5 µM.
In short: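 Probe: 1-aminoanthracene (50% saturated, PBS). Protein: horse-spleen apoferritin, 10 uM. Incubation: 10 min, room temperature. Detection: 380 nm excitation, 535 nm emission. Analysis: normalized response, four-parameter Hill.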
Further: nearly all actives have a fitted effect of over 20% in size.
Potency means the concentration at half of the fitted maximal effect; tags describe the fitted curve by direction and shape.

Sequence of UniProt P02791 (P02791 whole entry, looked up): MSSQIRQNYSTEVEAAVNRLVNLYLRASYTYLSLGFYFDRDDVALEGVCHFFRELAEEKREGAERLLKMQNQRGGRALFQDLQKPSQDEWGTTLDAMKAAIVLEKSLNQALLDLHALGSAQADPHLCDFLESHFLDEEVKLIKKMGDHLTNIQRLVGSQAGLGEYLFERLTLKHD

Potency, inconclusive:
Cc1cc(C)c(S(=O)(=O)NCC(c2cccs2)S(=O)(=O)c2ccccc2)c(C)c1 (stereo not given) 0.891 µM [inhibitor, full curve, poor fit]
O=C(CNC(=O)c1ccccc1)N/N=C/c1ccc([N+](=O)[O-])o1 31.6 µM [inhibitor, partial curve, poor fit]
CCCOc1cccc(C(=O)Nc2cccc(NC(=O)c3ccco3)c2)c1 14.1 µM [inhibitor, partial curve]
COc1ccc(Nc2nc3[nH]c(=O)cc(O)c3s2)cc1 50.1 µM [inhibitor, single point]
O=C(/C=C/c1ccc(-c2ccccc2[N+](=O)[O-])o1)c1ccco1 28.2 µM [inhibitor, partial curve]
CCN1C(=NCc2cc(OC)c(OC)c(OC)c2)N[C@@H](c2cccc(C(F)(F)F)c2)C(C(=O)OC)=C1C 14.1 µM [inhibitor, partial curve]
O=C(COc1ccccc1Cl)Nc1ccc(S(=O)(=O)N2CCOCC2)cc1 25.1 µM [inhibitor, partial curve]
CN(Cc1ccon1)C(=O)CCc1nnc(CCCCc2ccccc2)o1 25.1 µM [inhibitor, partial curve]
O=C(c1ccc(C#CC2(O)CCCCC2)cc1)N1CCN(Cc2ccccc2)CC1 25.1 µM [inhibitor, partial curve]
N/C(=N\OC(=O)CCC1CCCCC1)c1cccnc1 28.2 µM [inhibitor, partial curve]
CCCc1nc2oc3c(NCCN(C)C)ncnc3c2c2c1CCCC2 25.1 µM [inhibitor, partial curve]
C=Cc1ccc(Cn2c(C(=O)O)c(CNCc3cc(Br)ccc3OC)c3ccc(C)cc32)cc1 10 µM [inhibitor, full curve, poor fit]
CN(C)S(=O)(=O)c1cccc(-c2nnc(SCc3ccc4c(c3)OCCO4)o2)c1 2.82 µM [inhibitor, full curve, poor fit]
CCCC[C@]12Cc3ccccc3C(O1)c1c(cc(-c3ccccc3)oc1=O)O2 1 µM [inhibitor, partial curve]
Cc1ccc(-c2nc(CS(=O)CC(=O)N3CCN(c4ccc(Cl)cc4)CC3)c(C)o2)cc1 (stereo not given) 35.5 µM [inhibitor, partial curve]
O=C(Cn1nc(-c2ccc(Cl)cc2)c2ccccc2c1=O)Nc1cccnc1 12.6 µM [inhibitor, partial curve]
CCN(CC)CCNC(=O)c1ccc(Cn2c(=O)c3cccn3c3cccnc32)cc1 39.8 µM [inhibitor, partial curve]
O=C(COC(=O)CNC(=O)c1ccc(Br)o1)Nc1ccc2c(c1)OCCO2 14.1 µM [inhibitor, partial curve]
CCCCC[C@H]1CN(C2CCCCC2)C(=O)[C@@H]1CC(=O)NCc1ccc(OC)cc1 28.2 µM [inhibitor, partial curve]
O=C(CNc1ccc2c(c1)OCO2)N/N=C\c1ccccc1Cl 50.1 µM [inhibitor, single point]
C/C1=C\CCC2C(/C=C(\C)CC1)OC(=O)C2CN1CCCCC1 (stereo not given) 56.2 µM [inhibitor, single point]
C=CCc1ccc(OCCOCCOc2ccc(C)cc2[N+](=O)[O-])c(OC)c1 25.1 µM [inhibitor, partial curve]
O=C(N/N=C/c1ccc(F)cc1)c1sccc1OCc1ccc(F)cc1 50.1 µM [inhibitor, partial curve, poor fit]
Cc1cc(C)c2c(-n3cccc3)c(C(=O)NNS(=O)(=O)c3ccc(Cl)cc3)sc2n1 20 µM [inhibitor, partial curve]
Cc1ccc(Cn2c(C(C)NC(=O)c3ccccc3)nc3ccccc32)cc1 (stereo not given) 12.6 µM [inhibitor, full curve, poor fit]
Cc1ccccc1N=C/C=C1\N(C)c2ccccc2C1(C)C 50.1 µM [inhibitor, single point]
COc1ccc(/C=N/N=C2\CC3CCC2(C)C3(C)C)cc1O (stereo not given) 25.1 µM [inhibitor, partial curve]
COC(=O)c1ccc(C2Nc3ccc(/C(C)=N/NC(=O)C(OC)c4ccccc4)cc3C3C=CCC32)cc1 (stereo not given) 25.1 µM [inhibitor, partial curve]
CC1CCN(C(=O)COC(=O)c2ccc(Br)o2)CC1 31.6 µM [inhibitor, partial curve]
COc1ccc(NC(=O)c2cccs2)cc1O 56.2 µM [inhibitor, single point]
O=C(c1cc2nc(-c3ccco3)cc(C(F)(F)F)n2n1)N1CCN(c2ccc(F)cc2)CC1 35.5 µM [inhibitor, partial curve]
CC1(C)CC(=O)C2=C(C1)NC(SCC(=O)Nc1ccccc1)=C(C#N)C2c1ccco1 (stereo not given) 11.2 µM [inhibitor, partial curve]
CN1CCN(c2ccc(NC(=S)NC(=O)/C=C/c3ccco3)cc2)CC1 35.5 µM [inhibitor, single point]
COc1cc(NC(=O)CN2C(=O)NC(C)(CCC(C)C)C2=O)cc(OC)c1 (stereo not given) 12.6 µM [inhibitor, partial curve]
COc1ccc(-c2nc(SCC(=O)Nc3c(C)cc(C)cc3C)n[nH]2)cc1 25.1 µM [inhibitor, partial curve]
Cc1ccc(N=C2NC(=O)/C(=C/C=C/c3ccco3)S2)cc1C 28.2 µM [inhibitor, partial curve]
OC(c1ccc(Cl)cc1)c1nccc2ccccc12 (stereo not given) 50.1 µM [inhibitor, single point]
COC(=O)c1c(NC(=O)CC2SCC(C(=O)OC)NC2=O)sc2c1CCCC2 (stereo not given) 39.8 µM [inhibitor, partial curve]
CC(C)c1ccc2oc(-c3ccc(N)cc3)nc2c1 44.7 µM [inhibitor, partial curve]
Cc1cccc(NCc2ccc(Br)cc2)n1 39.8 µM [inhibitor, partial curve]
CC[C@H]1[C@@H]2C=C[C@@H]3[C@H]4C/C=C\C(=O)NCCC[C@@H]5NC(=O)C(=C5O)C(=O)CC[C@@H]4C[C@@H]3[C@H]2C[C@H]1C 39.8 µM [inhibitor, single point] and 25.1 µM [inhibitor, partial curve]
COCCCNC(=O)CCC(=O)NNc1nc2ccccc2c2nc(C)nn12 0.794 µM [inhibitor, full curve, poor fit]
COc1cc(Cl)ccc1OCc1cc(C(=O)N2C[C@@H]3CCC[C@H]2C3)no1 35.5 µM [inhibitor, single point]
CCCCCOc1ccc(NS(C)(=O)=O)cc1 14.1 µM [inhibitor, partial curve]
Cc1ccc2c(c1)/C(=N/O)CCS2 35.5 µM [inhibitor, partial curve]
Cc1ccc(/C=N\NC(=O)CNC(=O)C23CC4CC(CC(C4)C2)C3)o1 50.1 µM [inhibitor, single point]
CCOC(=O)C1(CCOc2ccccc2)CCN(Cc2ccc3nonc3c2)CC1 35.5 µM [inhibitor, partial curve]

Potency, inactive:
COc1ccc(/C=C/C(=O)NC(=S)N2CCOCC2)cc1
CC(C)C(=O)Nc1nc(-c2ccc(S(=O)(=O)N3CCOCC3)cc2)cs1
CN(C)c1ccc(NC(=O)COC(=O)Cn2nnc3ccccc32)cc1
Cc1nc(-c2ccc(NC(=O)CC(C)C)cc2)cs1
NS(=O)(=O)c1ccc(N/C=C\C(=O)c2ccc(F)cc2)cc1
Cc1ccc(-c2cc(C(F)F)n3ncc(C(=O)N4CCCc5ccccc54)c3n2)cc1
O=C(NCC1CCCO1)C(=O)NCC(c1ccco1)N1CCN(c2ccccc2F)CC1 (stereo not given)
Cc1noc(C)c1S(=O)(=O)N1CCC(C(=O)N2CCN(c3cccc(C(F)(F)F)c3)CC2)CC1
Cc1cc(C(=O)O)ccc1N/C=C1\CCCC(C)C1=O (stereo not given)
C/C=C1\COC(C(=O)NCCCN2CCCC2=O)(C(F)(F)F)C=C1C=C(C)C (stereo not given)
Cc1sc(=NC(=O)c2ccco2)n(C)c1-c1ccc(Cl)cc1
C#CCOCCOCCOCCNc1nc(N2CCN(C(=O)[C@H](C)n3cc(CCCN=C(N)N)nn3)CC2)nc(N2CCN(C(=O)[C@H](CCCCN)n3cc(CCCC)nn3)CC2)n1
CC1Cc2ccccc2N1S(=O)(=O)c1nnc(NC(=O)c2ccccc2)s1 (stereo not given)
CCN(Cc1ccccc1)C(=O)CCc1nnc(CCCc2ccccc2)o1
N/C(Cc1ccc([N+](=O)[O-])cc1)=N\OC(=O)c1ccc(Br)cc1
CCOc1cc(CN2CCCCC2)ccc1OC
CCN(CC)c1ccc(NC(=O)c2cc3ccccc3o2)c(C)c1
CC(=O)OCC(NC(=O)C(Cc1ccccc1)NC(=O)OC(C)(C)C)C1OC(n2cc(F)c(=O)[nH]c2=O)C(OC(C)=O)C1OC(C)=O (stereo not given)
